In PubChem BioAssay AID504332 (National Center for Advancing Translational Sciences (NCATS), 2011):
In all, about 350,000 compounds went through this assay and about 31,000 (8.9%) were called active. This list was built around the results that the source calls inconclusive (neither active nor inactive); the mix of calls is not that of the screen. The call rests on the fitted dose curve; in most records, active means well fitted inhibition curve with a large enough effect; inconclusive means small, poorly fitted or top-dose-only effect; inactive means no such curve, though single readings can be large or run the other way. Potencies of inconclusive entries are doubtful fits and often do not repeat.

molecular target: Histone-lysine N-methyltransferase EHMT2 (Homo sapiens) (UniProt Q96KQ7); experiment: qHTS Assay for Inhibitors of Histone Lysine Methyltransferase G9a; settings: G9a H3K9 monomethylation, AlphaScreen, 2 h; activity, negative = inhibition: at 59 µM (top of the series) unless noted; further: nearly all actives have a fitted effect of over 75% in size
Sequence of UniProt Q96KQ7 (Q96KQ7 whole entry, looked up): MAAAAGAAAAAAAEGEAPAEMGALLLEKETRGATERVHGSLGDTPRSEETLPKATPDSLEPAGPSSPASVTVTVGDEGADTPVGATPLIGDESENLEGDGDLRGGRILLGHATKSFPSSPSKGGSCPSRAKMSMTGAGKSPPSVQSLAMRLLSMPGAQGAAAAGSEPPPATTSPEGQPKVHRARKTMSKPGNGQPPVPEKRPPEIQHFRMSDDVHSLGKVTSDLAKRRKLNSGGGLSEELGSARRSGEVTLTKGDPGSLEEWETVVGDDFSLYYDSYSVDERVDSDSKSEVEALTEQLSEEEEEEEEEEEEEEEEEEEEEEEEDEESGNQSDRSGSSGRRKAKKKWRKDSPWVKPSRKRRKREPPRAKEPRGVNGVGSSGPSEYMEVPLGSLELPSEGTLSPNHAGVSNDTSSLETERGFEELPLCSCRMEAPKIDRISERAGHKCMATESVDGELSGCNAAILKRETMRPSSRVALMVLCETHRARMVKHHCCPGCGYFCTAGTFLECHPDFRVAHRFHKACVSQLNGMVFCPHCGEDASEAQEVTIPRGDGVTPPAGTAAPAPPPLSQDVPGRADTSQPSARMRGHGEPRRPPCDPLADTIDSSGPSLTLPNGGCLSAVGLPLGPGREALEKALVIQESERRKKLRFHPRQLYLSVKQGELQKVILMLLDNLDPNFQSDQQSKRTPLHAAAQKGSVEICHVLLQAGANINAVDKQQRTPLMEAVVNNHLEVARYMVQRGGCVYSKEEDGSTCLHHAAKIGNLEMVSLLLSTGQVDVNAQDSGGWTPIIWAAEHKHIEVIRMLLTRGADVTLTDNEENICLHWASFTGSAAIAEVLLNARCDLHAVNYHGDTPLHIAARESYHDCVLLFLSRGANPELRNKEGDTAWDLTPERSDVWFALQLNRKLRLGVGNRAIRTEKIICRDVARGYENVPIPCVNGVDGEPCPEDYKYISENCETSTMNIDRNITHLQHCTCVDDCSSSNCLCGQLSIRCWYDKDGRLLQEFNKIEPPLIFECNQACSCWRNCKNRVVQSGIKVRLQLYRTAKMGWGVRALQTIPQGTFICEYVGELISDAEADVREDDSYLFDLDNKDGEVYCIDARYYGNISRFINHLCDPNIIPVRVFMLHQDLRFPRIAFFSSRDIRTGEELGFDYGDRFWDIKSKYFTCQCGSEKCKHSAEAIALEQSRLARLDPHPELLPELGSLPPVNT
In short: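 Readings reflect AlphaScreen signal from monomethyl-H3K9 antibody detection. HMT at 20 nM; substrate b-H3K9 500 nM; cofactor SAM 20 uM; 2 h RT reaction; compounds tested as titrations in qHTS with 15 min preincubation.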
On the % scale 0 is the no-effect control and ±100 the full control effect; potency means the concentration at half of the fitted maximal effect; tags describe the fitted curve by direction and shape.

SMILES	activity, negative = inhibition	Potency
O=C(NCC(=O)N1CCN(c2ccccc2O)CC1)C1CCCCC1	inactive: -47.8% [at 102 µM]	–
NC(=O)N/N=C\c1cc(Br)ccc1O	inactive: 4.07%	–
O=C(CCNC(=O)c1ccco1)Nc1nc2ccccc2s1	–	inconclusive: 56.2 µM [inhibitor, partial curve, poor fit]
O=[N+]([O-])c1ccc(N2CCOCC2)cc1O	inactive: 3.81% [at 102 µM]	–
O=C(O)CC/C(=N\NC(=O)c1ccccc1)c1cccs1	inactive: -1.67% [at 102 µM]	–
CC(=O)c1nc(N2C(=O)C3CC=C(C)CC3C2=O)sc1C (stereo not given)	–	inconclusive: 7.08 µM [inhibitor, partial curve, poor fit]
Cc1ccc(C(C)C)c(OCCSc2nc(-c3ccccc3F)nc3cc(=O)[nH]n23)c1	inactive: -3.02%	–
CC(C)(Cc1cccc(CC(C)(C)C(=O)O)c1)C(=O)O	inactive: 14.3% [at 102 µM]	–
COC(=O)c1ccc(C2/C(=C(/O)c3ccc4c(c3)CC(C)O4)C(=O)C(=O)N2Cc2cccnc2)cc1 (stereo not given)	–	active: 70.8 µM
Cc1cc(Nc2cccc(C)c2C)n2nc(C)nc2n1	–	inconclusive: 89.1 µM [inhibitor, single point]
Cc1ccccc1Nc1cc(C(=O)NCCCN2CCN(c3cccc(Cl)c3)CC2)c2ccccc2n1	–	inconclusive: 28.2 µM [inhibitor, single point]
CCc1ccc(OCC(=O)NC(Cc2c[nH]c3ccccc23)C(=O)O)cc1 (stereo not given)	–	inconclusive: 31.6 µM [inhibitor, partial curve, poor fit]
Cc1ccc(N2C(=O)N(CC(=O)Nc3ccc(C)c(C)c3[N+](=O)[O-])C(=O)C2C)cc1 (stereo not given)	inactive: -4.09% [at 102 µM]	–
CCCNC(=O)NS(=O)(=O)c1cnccc1Sc1ccc(Cl)c(Cl)c1	–	inconclusive: 22.4 µM [inhibitor, single point]
NC(=O)c1sc2nc3c(c(-c4ccccc4)c2c1N)CCC3	–	inconclusive: 39.8 µM [inhibitor, single point]
CCc1ccc(NC(=O)COc2coc(CN3CCc4ccccc4C3)cc2=O)cc1	–	active: 56.2 µM
COc1ccc(C(=O)N(CCN2CCOCC2)CC(=O)NC2CCCC2)cc1OC	–	active: 50.1 µM
CCOC(=O)C1CCCCN1Cc1ccc(-c2ccccc2)cc1 (stereo not given)	–	inconclusive: 28.2 µM [inhibitor, single point]

SMILES	activity, negative = inhibition	Potency
O=C(CSc1nnc(CNc2ccc(F)cc2)n1Cc1ccco1)NC1CC1	–	inconclusive: 50.1 µM [inhibitor, partial curve, poor fit]
CC(=O)OCC1OC(n2ccc3ccccc32)C(OC(C)=O)C(OC(C)=O)C1OC(C)=O (stereo not given)	–	inconclusive: 3.55 µM [inhibitor, single point]
Cc1ccc(Cn2c(C(=O)O)c(CNCc3ccc(OC(C)C)cc3)c3ccc(C)cc32)cc1	–	inconclusive: 11.2 µM [inhibitor, partial curve]
O=C(CSc1ncn(-c2ccccc2)n1)Nc1ccc(Br)cn1	–	active: 3.16 µM
CCn1c(C(=O)NCc2ccc(F)cc2)cc2oc3ccccc3c21	inactive: 0.902%	–
CN(C)CCNC(=O)C(=O)NCC(c1ccc2c(c1)OCO2)N1CCN(c2ccc(F)cc2)CC1 (stereo not given)	–	inconclusive: 89.1 µM [inhibitor, single point]
CSc1ccc(C(=S)N2CCN(C)CC2)cc1	–	inconclusive: 8.91 µM [inhibitor, partial curve, poor fit]
CCOC(=O)N1CCC(NC(=O)c2cc(C(=O)Nc3ccc(OCC)cc3)ccc2CO)CC1	–	inconclusive: 89.1 µM [inhibitor, single point]
CN(C)S(=O)(=O)c1ccc(Cl)c(NC(=O)COC(=O)CN2C(=O)C3CCCCC3C2=O)c1 (stereo not given)	inactive: -2.53% [at 102 µM]	–
Cc1cc(OCC(=O)Nc2ccccc2N2CCCC2)ccc1C(C)C	–	inconclusive: 89.1 µM [inhibitor, partial curve, poor fit]
COc1ccccc1NC(=O)CSc1nnc(N)s1	–	inconclusive: 28.2 µM [inhibitor, partial curve, poor fit]
COCCNC(=O)c1cc(-c2ccc3c(c2)OCO3)on1	–	inconclusive: 100 µM [inhibitor, single point]
CC(/C=N/NC(=O)c1cc(-c2ccncc2)nc2ccccc12)=C\c1ccco1	–	inconclusive: 79.4 µM [inhibitor, single point]
O=C(CSc1nc2cc(C(=O)NC3CCCC3)ccc2c(=O)n1CC1CCCO1)c1cccc(Cl)c1 (stereo not given)	–	inconclusive: 3.55 µM [inhibitor, full curve]
CCN1C(=O)c2ccccc2S(=O)c2ccc(C(=O)NCc3ccc(OC)cc3)cc21 (stereo not given)	inactive: -3.33%	–
COC(=O)C1=C(O)/C(=C\c2ccc(O)c(OC)c2)N=C1C	inconclusive: -68.8% [inhibitor]	–
O=C(Cc1coc2ccc3ccccc3c12)NCc1cccs1	–	inconclusive: 31.6 µM [inhibitor, partial curve, poor fit]
